{"source": "paper PMC11995724", "about": "“Antibiotic target discovery by integrated phenotypic and activity-based profiling of electrophilic fragments” (Cell chemical biology, 2025)", "note": "The campaign covered roughly 3,200 compounds. About 110 (3.4%) showed an effect of 50% or more. The list shows a part of the results.", "data": [{"tested_on": "T1, V. cholerae SAD30", "T1 construct": "SAD30", "set-up": "species or system S. aureus MSSA476 (TSB) or V. cholerae SAD30 (LB); 384-well bacterial growth screen at 25 uM, OD600 relative to DMSO control", "conditions": "relative growth, OD600, LB; 25 µM; inhibitor", "units": {"% of control remaining": "%"}, "values": [{"smiles": "O=C(CCl)Nc1ccccc1SCc1ccccc1", "note": "[4-J05, N-[2-(benzylsulfanyl)phenyl]-2-chloroacetamide]", "% of control remaining": 96.7867}, {"smiles": "CC(Cl)C(=O)Nc1ccc(N(C)C)cc1.Cl", "note": "(stereo not drawn) [5-N04, 2-chloro-N-[4-(dimethylamino)phenyl]propanamide hydrochloride]", "% of control remaining": 104.066}, {"smiles": "Cc1ccc(C=C(C#N)C(=O)Nc2cc(Cl)ccc2Cl)s1", "note": "[9-E19, 2-cyano-N-(2,5-dichlorophenyl)-3-(5-methylthiophen-2-yl)prop-2-enamide]", "% of control remaining": 84.7723}, {"smiles": "COc1cccc(NC(=O)C(C#N)=Cc2ccc([N+](=O)[O-])o2)c1", "note": "[8-A19, 2-cyano-N-(3-methoxyphenyl)-3-(5-nitrofuran-2-yl)prop-2-enamide]", "% of control remaining": 86.5398}, {"smiles": "C=CC(=O)NC(Cn1ccnc1)c1ccccc1", "note": "(stereo not drawn) [2-M06, N-[2-(1H-imidazol-1-yl)-1-phenylethyl]prop-2-enamide]", "% of control remaining": 89.4239}, {"smiles": "C=CC(=O)N(Cc1cc2ccccn2n1)CC1(O)CCCCC1", "note": "[1-H15, N-[(1-hydroxycyclohexyl)methyl]-N-({pyrazolo[1,5-a]pyridin-2-yl}methyl)prop-2-enamide]", "% of control remaining": 81.1659}, {"smiles": "O=C(Cc1cccc(F)c1)N1CCSSCC1", "note": "[10-L21, 1-(1,2,5-dithiazepan-5-yl)-2-(3-fluorophenyl)ethan-1-one]", "% of control remaining": 98.8116}, {"smiles": "O=C(CCl)Nc1cc(Cl)cc(Cl)c1", "note": "[4-K09, 2-chloro-N-(3,5-dichlorophenyl)acetamide]", "% of control remaining": 84.8825}, {"smiles": "O=C(CCl)Cc1ccc(Cl)c(Cl)c1", "note": "[10-E15, 1-chloro-3-(3,4-dichlorophenyl)propan-2-one]", "% of control remaining": 25.5601}, {"smiles": "COc1ccc(S(N)(=O)=O)cc1NC(=O)CCl", "note": "[6-O03, 2-chloro-N-(2-methoxy-5-sulfamoylphenyl)acetamide]", "% of control remaining": 98.8909}, {"smiles": "C=CC(=O)N1CCCC1(COC)C(N)=O", "note": "(stereo not drawn) [3-K07, 2-(methoxymethyl)-1-(prop-2-enoyl)pyrrolidine-2-carboxamide]", "% of control remaining": 92.2661}, {"smiles": "N#CC(=Cc1cccc(Oc2ccccc2)c1)C(=O)N1CCCC1", "note": "[9-F06, 3-(3-phenoxyphenyl)-2-(pyrrolidine-1-carbonyl)prop-2-enenitrile]", "% of control remaining": 85.724}, {"smiles": "C=CC(=O)NC(c1nccs1)C(F)(F)F", "note": "(stereo not drawn) [2-N07, N-[2,2,2-trifluoro-1-(1,3-thiazol-2-yl)ethyl]prop-2-enamide]", "% of control remaining": 88.1887}, {"smiles": "C=CC(=O)N1CCC(C(=O)NC2(c3ccc(F)cc3F)CCC2)CC1", "note": "[3-M04, N-[1-(2,4-difluorophenyl)cyclobutyl]-1-(prop-2-enoyl)piperidine-4-carboxamide]", "% of control remaining": 98.9708}, {"smiles": "C=CC(=O)N1CCC(C(=O)NC2(Cc3ccccc3)CCCC2)CC1", "note": "[3-H12, N-(1-benzylcyclopentyl)-1-(prop-2-enoyl)piperidine-4-carboxamide]", "% of control remaining": 92.4426}, {"smiles": "COc1ccc(OC)c(-c2csc(NC(=O)CCl)n2)c1", "note": "[4-H12, 2-chloro-N-[4-(2,5-dimethoxyphenyl)-1,3-thiazol-2-yl]acetamide]", "% of control remaining": 100.237}, {"smiles": "CC(Cl)C(=O)N1CC(c2cc(CO)on2)C1", "note": "(stereo not drawn) [7-M10, 2-chloro-1-{3-[5-(hydroxymethyl)-1,2-oxazol-3-yl]azetidin-1-yl}propan-1-one]", "% of control remaining": 81.1498}, {"smiles": "CC1CN(c2ccc(NC(=O)C(C#N)=Cc3ccco3)cc2)CC(C)O1", "note": "(stereo not drawn) [9-J09, 2-cyano-N-[4-(2,6-dimethylmorpholin-4-yl)phenyl]-3-(furan-2-yl)prop-2-enamide]", "% of control remaining": 84.3644}, {"smiles": "C=CC(=O)NCc1ccc(-n2cccn2)cc1", "note": "[1-M07, N-{[4-(1H-pyrazol-1-yl)phenyl]methyl}prop-2-enamide]", "% of control remaining": 89.0882}, {"smiles": "O=C(CCl)N1C[C@@H]2C[C@H]1CN2c1ccccc1", "note": "[5-E22, 2-chloro-1-[(1S,4S)-5-phenyl-2,5-diazabicyclo[2.2.1]heptan-2-yl]ethan-1-one]", "% of control remaining": 106.756}, {"smiles": "C=CC(=O)N1CCC(C(=O)N2CC=CCC2)(c2ccccc2)CC1", "note": "[3-J06, 1-[4-phenyl-4-(1,2,3,6-tetrahydropyridine-1-carbonyl)piperidin-1-yl]prop-2-en-1-one]", "% of control remaining": 95.6185}, {"smiles": "CC(Cl)C(=O)NCc1ccon1", "note": "(stereo not drawn) [7-I13, 2-chloro-N-[(1,2-oxazol-3-yl)methyl]propanamide]", "% of control remaining": 79.9604}, {"smiles": "C=CC(=O)N(CC)Cc1nc2ccsc2c(=O)[nH]1", "note": "[3-P16, N-ethyl-N-({4-oxo-3H,4H-thieno[3,2-d]pyrimidin-2-yl}methyl)prop-2-enamide]", "% of control remaining": 108.146}, {"smiles": "O=C(CCl)NOCc1ccccc1", "note": "[4-H22, N-(benzyloxy)-2-chloroacetamide]", "% of control remaining": 119.733}, {"smiles": "O=C(CCl)Nc1c(F)c(F)c(F)c(F)c1F", "note": "[4-L08, 2-chloro-N-(2,3,4,5,6-pentafluorophenyl)acetamide]", "% of control remaining": 104.033}, {"smiles": "C=CC(=O)N1CC(C)c2ccc(S(N)(=O)=O)cc21", "note": "(stereo not drawn) [3-L16, 3-methyl-1-(prop-2-enoyl)-2,3-dihydro-1H-indole-6-sulfonamide]", "% of control remaining": 96.1478}, {"smiles": "C=CC(=O)N1CCNC(=O)C1Cc1nc2ccccc2o1", "note": "(stereo not drawn) [1-B20, 3-[(1,3-benzoxazol-2-yl)methyl]-4-(prop-2-enoyl)piperazin-2-one]", "% of control remaining": 92.2473}, {"smiles": "CC(Cl)C(=O)N(c1ccccc1)C1CCOC1", "note": "(stereo not drawn) [7-G14, 2-chloro-N-(oxolan-3-yl)-N-phenylpropanamide]", "% of control remaining": 72.8234}, {"smiles": "CC(CNC(=O)C(C)Cl)Oc1cccc(Cl)c1", "note": "(stereo not drawn) [6-F13, 2-chloro-N-[2-(3-chlorophenoxy)propyl]propanamide]", "% of control remaining": 82.8135}, {"smiles": "CC(C)Oc1ccc(C=C(C#N)C(=O)NC2CCCC2)cc1", "note": "[8-O10, 2-cyano-N-cyclopentyl-3-[4-(propan-2-yloxy)phenyl]prop-2-enamide]", "% of control remaining": 68.3209}]}]}
